# According to the supplement of paper PMC9446081:
# Hit rate of the full screen: of about 39,000 compounds, about 220 (0.56%) showed activity. The list shows a part of the results.
# Tested on: Escherichia coli K-12 BW25113
# Test: relative growth (OD600 normalised to plate interquartile mean) (fraction); higher = less growth inhibition, active = 0.2 or less
# Conditions: 50 µM; LB; incubation time: overnight (16-24 h)
# 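Also: static incubation at 37 °C against the wild-type strain, values averaged over two biological replicates.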
row,Structure (SMILES),relative growth
1,C[C@@H]1CN([C@@H](C)CO)C(=O)c2cc(NC(=O)C3CCCCC3)ccc2O[C@@H](C)CCCCO[C@@H]1CN(C)C(=O)Cc1ccccc1,inactive: 1.01
2,CN(C)CCCNC(=O)C[C@@H]1CC[C@H](NS(=O)(=O)c2ccccc2)[C@H](CO)O1,inactive: 1.03
3,Cc1ccc(S(=O)(=O)Nc2ccc3c(c2)C(=O)N([C@H](C)CO)C[C@H](C)[C@H](CN(C)Cc2ccc4c(c2)OCO4)OCCCC[C@@H](C)O3)cc1,inactive: 0.987
4,COc1ccccc1CNS(C)(=O)=O,inactive: 1
5,C[C@@H]1[C@@H](c2ccccc2)OC(=O)[C@@H]2[C@@H]3C=C[C@]4(O3)[C@H](C(=O)N(Cc3ccccc3)C/C=C\CCC(=O)N1C)N([C@@H](C)CO)C(=O)[C@@H]24,inactive: 0.998
6,CC(C)NC(=O)N(C)C[C@H]1Oc2ccc(NC(=O)NC3CCCCC3)cc2CC(=O)N([C@H](C)CO)C[C@@H]1C,inactive: 0.99
7,CC(C)N1CCNCC1,inactive: 1.05
8,C[C@@H]1CN([C@H](C)CO)C(=O)c2cc(NS(=O)(=O)c3cccs3)ccc2O[C@@H](C)CCCCO[C@@H]1CN(C)C(=O)C1CCCCC1,inactive: 0.985
9,COc1ccc(NC(=O)N(C)C[C@@H]2Oc3ccc(NC(=O)CCCN(C)C)cc3C(=O)N([C@@H](C)CO)C[C@@H]2C)cc1,inactive: 1.03
10,COc1ccccc1CNC(=O)C[C@H]1C[C@H]2c3cc(NC(=O)Cc4ccncc4)ccc3O[C@H]2[C@@H](CO)O1,inactive: 1.01
11,Nc1ccc(-n2cccc2)cc1Cl,inactive: 0.966
12,C[C@@H]1CN([C@@H](C)CO)C(=O)Cc2cc(NS(=O)(=O)c3ccccc3)ccc2O[C@@H]1CN(C)S(=O)(=O)c1cn(C)cn1,inactive: 0.978
13,C[C@H](CO)N1C[C@H](C)[C@@H](CN(C)S(=O)(=O)c2ccccc2F)Oc2cc(C#Cc3cccc(F)c3)ccc2S1(=O)=O,inactive: 1.01
14,Cc1ccc(S(=O)(=O)N(C)C[C@@H]2OCCCC[C@@H](C)Oc3ccc(NC(=O)Cc4ccccc4)cc3C(=O)N([C@@H](C)CO)C[C@@H]2C)cc1,inactive: 1.01
15,C[C@@H]1CN([C@@H](C)CO)S(=O)(=O)c2ccc(-c3ccc(C(=O)N(C)C)cc3)cc2O[C@H]1CN(C)C(=O)C1CCOCC1,inactive: 1.03
16,CCS(=O)(=O)N1CC[C@]2(CN(c3cnn(C)c3)C(=O)CN2C(C)=O)C1,inactive: 1.03
17,C[C@@H]1CCCCO[C@@H](CN(C)S(=O)(=O)c2ccc(Cl)cc2)[C@H](C)CN([C@@H](C)CO)C(=O)c2cc(NC(=O)Cc3ccccc3)ccc2O1,inactive: 1.03
18,C[C@@H]1CN([C@H](C)CO)C(=O)c2c(c3ccccc3n2C)-c2ccccc2CO[C@@H]1CN(C)S(=O)(=O)c1ccc(Cl)cc1,inactive: 1.06
19,COC(=O)C1=CO[C@@H](O[C@@H]2O[C@H](CO)[C@@H](O)[C@H](O)[C@H]2O)[C@@H]2[C@@](C)(O)[C@@H](OC(=O)/C=C/c3ccc(O)cc3)C[C@]12O,inactive: 1
20,O=C(C[C@H]1C[C@H]2c3cc(NC(=O)c4cccnc4)ccc3O[C@H]2[C@H](CO)O1)NCc1cc(F)ccc1F,inactive: 0.979
21,CO[C@H]1CN(C)C(=O)c2cc(NC(=O)NC3CCCCC3)ccc2OC[C@H](C)N(CCc2ccccc2)C[C@H]1C,inactive: 0.96

row,Structure (SMILES),relative growth
1,Cc1ccc(S(=O)(=O)N2C[C@@H](O)COC[C@H]3O[C@H](CC(=O)NCCCN(C)C)CC[C@@H]32)cc1,inactive: 0.987
2,CCOC(=O)[C@H](C(C)=O)[C@H]1CCS(=O)(=O)C1,inactive: 0.897
3,C[C@@H]1CN([C@@H](C)CO)C(=O)c2cccc(NC(=O)Nc3ccc(C(F)(F)F)cc3)c2O[C@H]1CN(C)Cc1ccc(C(=O)Nc2ccccc2N)cc1,inactive: 0.956
4,COCC(=O)N(C)C[C@H]1Oc2cc(-c3ccc(C#N)cc3)ccc2S(=O)(=O)N([C@H](C)CO)C[C@H]1C,inactive: 0.997
5,CC(C)NC(=O)N(C)C[C@H]1OCCCC[C@@H](C)Oc2ccc(NS(=O)(=O)c3cn(C)cn3)cc2C(=O)N([C@H](C)CO)C[C@H]1C,inactive: 0.963
6,Cc1ccc(S(=O)(=O)Nc2cccc3c2O[C@H](CN(C)Cc2ccc(-c4ccccc4)cc2)[C@@H](C)CN([C@H](C)CO)C3=O)cc1,inactive: 1.05
7,C[C@@H]1CCCCO[C@@H](CN(C)S(=O)(=O)c2ccccc2)[C@H](C)CN([C@@H](C)CO)C(=O)c2cc(NC(=O)Nc3ccc4c(c3)OCO4)ccc2O1,inactive: 0.993
8,C[C@@H]1CCCCO[C@H](CN(C)Cc2ccc(C(F)(F)F)cc2)[C@@H](C)CN([C@@H](C)CO)C(=O)c2cc(NS(=O)(=O)c3cccs3)ccc2O1,inactive: 1.05
9,Cc1noc(C)c1S(=O)(=O)N(C)C[C@@H]1Oc2ccc(NC(=O)Cc3cn(C)c4ccccc34)cc2CC(=O)N([C@@H](C)CO)C[C@@H]1C,inactive: 0.971
10,C[C@H]1CN([C@@H](C)CO)C(=O)c2cc(-c3cccnc3)cnc2O[C@H]1CN(C)C(=O)Nc1ccc2c(c1)OCO2,inactive: 1.01
11,CCOCCOCCOc1oc(C(=O)NC2CCCCC2)c(-c2ccc(Cl)cc2)c1S(=O)(=O)c1ccc(Cl)cc1,inactive: 1.02
12,NS(=O)(=O)Cc1noc2ccccc12,inactive: 0.932
13,Cc1noc(C)c1S(=O)(=O)Nc1cccc2c1O[C@H](CN(C)C(=O)Nc1ccc3c(c1)OCO3)[C@H](C)CN([C@@H](C)CO)C2=O,inactive: 1.02
14,COCc1cn(CC[C@H]2CC[C@H](NC(=O)CCN3CCCCC3)[C@H](CO)O2)nn1,inactive: 1.03
15,C[C@@H]1CCCCO[C@@H](CN(C)CC2CCCCC2)[C@@H](C)CN([C@@H](C)CO)C(=O)c2cc(NC(=O)Nc3cccc4ccccc34)ccc2O1,inactive: 1
16,C[C@H]1CN([C@@H](C)CO)C(=O)c2cc(-c3ccc(C(=O)N(C)C)cc3)cnc2O[C@@H]1CN(C)C(=O)CN(C)C,inactive: 0.993
17,C[C@H]1CN([C@@H](C)CO)C(=O)c2cc(-c3ccc(F)cc3)cnc2O[C@@H]1CN(C)C(=O)Cc1ccccn1,inactive: 1.03
18,COc1ccc(S(=O)(=O)N(C)C[C@H]2Oc3cc(C#CC4CC4)ccc3S(=O)(=O)N([C@H](C)CO)C[C@H]2C)cc1,inactive: 1.04
19,CN1C(=O)CS(=O)(=O)[C@@H]1c1ccccc1,inactive: 0.995
20,C=CCNC(=O)[C@@H]1[C@H]2C(=O)O[C@H](c3ccccc3)[C@H](c3ccccc3)N2[C@H](c2ccccc2OCCO)[C@@]12C(=O)Nc1ccc(C#Cc3ccc(OC)cc3)cc12,inactive: 1.04
21,C[C@H](CO)N1C[C@H](C)[C@H](CN(C)Cc2ccc(Oc3ccccc3)cc2)Oc2ccc(NS(=O)(=O)c3ccccc3)cc2CC1=O,inactive: 1.02

row,Structure (SMILES),relative growth
1,C[C@@H]1CCCCO[C@H](CN(C)S(=O)(=O)c2cn(C)cn2)[C@@H](C)CN([C@@H](C)CO)C(=O)c2cc(NS(C)(=O)=O)ccc2O1,inactive: 0.994
2,CCCCCCCCCCOc1cc2c(O)c(C(=O)OCC)cnc2cc1OCC,inactive: 0.912
3,C[C@@H]1CN([C@H](C)CO)S(=O)(=O)c2ccc(C#Cc3ccc(F)cc3)cc2O[C@@H]1CN(C)CC1CC1,inactive: 0.931
4,O=C(C[C@@H]1C[C@@H]2c3cc(NS(=O)(=O)c4ccc(F)cc4)ccc3O[C@@H]2[C@@H](CO)O1)NCc1ccccc1F,inactive: 1.03
5,CC(=O)OC1(C(C)=O)CCC2C3CC(C)C4=CC(=O)CCC4(C)C3CCC21C (stereo unspecified),inactive: 0.878
6,COc1ccccc1C#Cc1ccc2c(c1)O[C@H](CN(C)C(C)=O)[C@@H](C)CN([C@H](C)CO)S2(=O)=O,inactive: 0.997
7,CCCNC(=O)N(C)C[C@@H]1Oc2cc(C#Cc3cccc(F)c3)ccc2S(=O)(=O)N([C@H](C)CO)C[C@@H]1C,inactive: 1.01
8,CC(C)NC(=O)Nc1cccc2c1O[C@H](CN(C)C(=O)NC1CCCCC1)[C@H](C)CN([C@@H](C)CO)C2=O,inactive: 0.984
9,O=c1nc[nH]c2ncccc12,inactive: 1.01
10,C[C@H](CO)N1C[C@H](C)[C@@H](CN(C)C(=O)Nc2ccc3c(c2)OCO3)OCCCC[C@H](C)Oc2ccc(NS(=O)(=O)c3ccc(F)cc3)cc2C1=O,inactive: 1.04
11,COc1ccc2c(c1)C(=O)N(CCc1ccc(S(=O)(=O)NC(=O)NC3CCCCC3)cc1)C(=O)C2(C)C,inactive: 1.05
12,COc1ccc2c3c([nH]c2c1)[C@@H](CO)N(C[C@]13CN(Cc2ccccc2)C1)S(=O)(=O)c1cn(cn1)C,inactive: 1.03
13,C[C@H](CO)N1C[C@H](C)[C@H](CN(C)Cc2ccc(Cl)c(Cl)c2)Oc2ccc(NC(=O)CCC(F)(F)F)cc2CC1=O,inactive: 0.997
14,C[C@@H]1CCCCO[C@@H](CN(C)S(=O)(=O)c2ccccc2)[C@@H](C)CN([C@H](C)CO)C(=O)c2cc(NC(=O)Nc3ccccc3)ccc2O1,inactive: 1.01
15,C[C@H](CO)N1C[C@H](C)[C@@H](CN(C)C(=O)Nc2cccc3ccccc23)Oc2ccc(NC(=O)Nc3ccc(F)cc3)cc2C1=O,inactive: 0.924
16,CO[C@H]1CN(C)C(=O)c2ccc(NC(=O)C3CC3)cc2OC[C@@H](C)N(C(=O)Cc2ccccn2)C[C@H]1C,inactive: 0.991
17,CS(=O)(=O)N1[C@@H]2c3cccc(=O)n3C[C@H]1[C@H](CO)[C@H]2C(=O)NCc1ccccc1,inactive: 1.01
18,N#Cc1cccnc1Oc1ccccc1,inactive: 1.03
19,COc1ccc2c3c([nH]c2c1)[C@@H](CO)N(C[C@]13CN(C1)S(=O)(=O)C)C(=O)C1CC1,inactive: 0.977
